The RNAGym collection of RNA variant scans (doi:10.1073/pnas.2313332121)
Variants at the floor of the assay are shown more often than the library holds them.

B1: TPR 5TU (parent)
chain: GGAUCUUCUCGAUCUAACAAAAAAGACAAAUCUGCCACAAAGCUUGAGAGCAUCUUCGGAUGCAGAGGCGGCAGCCUUCGGUGGCGCGAUAGCGCCAACGUUCUCAACUAUGACACGCAAAACGCGUGCUCCGUUGAAUGGAGUUUAUCAUG

Variants of: B1
Assay: polymerase ribozyme fitness, log enrichment relative to wild type (log ratio); higher = more active; in vitro selection for triplet polymerase activity
In short: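 Streptavidin-bead capture of gel-excised extended constructs, followed by RT-PCR, closed a single triplicate in vitro selection round. That round began by annealing PCR-built, transcribed mutant libraries of each subunit of a heterodimeric triplet polymerase ribozyme with a biotinylated primer, the partner subunit and triplets, then incubating them frozen at −7 °C. After Illumina sequencing of inputs and outputs, genotypes needed ≥10 input reads and ≥1 read per output. Fitness is the base-2 logarithm of genotype enrichment over wild-type enrichment, using inverse-variance-weighted replicate averages.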
In the case of GGAUCUUCUCGAUCUAACAAAAAAGACGAAUCUGCCACAAAGCUUGAGAGCAUCUUCGGAUGCAGAGGCGGCAGCCUUCGGUGGCGCGAUAGUGCCAACGUUCUCAACUAUGACACGCAAAACGCGCGCUCCGUUGAAUGGAGUUUAUCAUG, the “polymerase ribozyme fitness (log ratio)” value is reported as at most -4.2. With GGAUCUUCUCGAUCUAACAAAAAAGACGAAUCUGCCACAAAGCUUGAGAGCAUCUUCGGAUGCAGAGGCGGCAGCCUUCGGUGGCGCGAUAGCGCCAACGUUCUCAAGUAUGACACGCAAAACGCGUGCUCCGUUGAAGGGAGUUUAUCAUG the “polymerase ribozyme fitness (log ratio)” value was at most -4.2. For GGAUCUUCUCGAUCUAACAAAAAAGACGAAUCUGCCACAAAGCUUGAGAACAUCUUUGGAUGCAGAGGAGGCAGCCUUUGGUGGCGCGAUAGCGCAAACGUUCUUAACUAUGACACGCAAAACACGUGCUCCGUUGAAUGGAGUUUAUCAUG, the “polymerase ribozyme fitness (log ratio)” value was at most -4.2. In the case of GGAUCUUCUCGAUCUAACAAAAAAGACGAAUCUGCCACAAAGCUUGAGAACAUCUCCGGAUGAAGAGGCGGCAGCCUUCGGUAGCGCGAUAGCGCGAACGUUCUCAACUAUGACACGCAAAACGCGUGCUCCGUUGAAUGGAGUUUAUCAUG, the “polymerase ribozyme fitness (log ratio)” value is reported as at most -4.2. With GGAUCUUCUCGAUCUAACAAAAAAGACGAAUCUGCCACAAAGCAUGAGAGCAUCUUCGGAUGCAGAGGCGGCAGCCUUCGGUCGCGCGAUAGCGCCAACGUUCUCAACUAUGACACGCAAAACGCGUGCUCCGUUGAAUGGAGUUUGUCAUG the “polymerase ribozyme fitness (log ratio)” value was at most -4.2. With GGAUCUUCUCGAUCUAACAAAAAAGACGAAUCUGCCACAAAGCGUGAGAGCAUCUUCGGAUGCAGAGGCGGCAGCCUUCGGGGGGGCGGUAGCGCCAACGUUCUCAACUAUGACACGCAAAACGCGUGCUCCGUUGAAUGGAGUUUAUCAUG the “polymerase ribozyme fitness (log ratio)” value was at most -4.2. With GGAUCUUCUCGAUCUAACAAAAAAGACGAAUCUGCCACAAAGCUCGAGAGCAUCUACGGAUGCUGAGGCGUCAGCCUUGGGUCGCGCGAUAGCGCCAACGUUCUCAACUAUGACACGCAAAACGCGUGCUCCGUUGAAUGGAGUUUAUCAUG the “polymerase ribozyme fitness (log ratio)” value was at most -4.2. With GGAUCUUCUCGAUCUAACAAAAAAGACGAAUCUGCCACAAAGCUGGCGAGCCUCUUCGAAUGCACAGGCGGCAGCCUUCGGUGGCGCGGUACCGCCAACGUUCUCAACUAUGACACGCAAAACGCGUGCUCCGUUGAAUGGAGUUUAUCAGG the “polymerase ribozyme fitness (log ratio)” value was at most -4.2. With GGAUCUUCUCGAUCUAACAAAAAAGACGAAUCUGCCACAAAGCUUGAGAGCAUCGUCGGAUGCAGAGGGGGCAGCCUUCGGUGGCGGGAUAGCGCCGACGUUCUCAACUAUGACACGCAAAACGCGUGCUCCGUUGAAUGGAGUUUAUCAUG the “polymerase ribozyme fitness (log ratio)” value was at most -4.2. For GGAUCUUCUCGAUCUAACAAAAAAGACGAAUCUGCCACAAAGCUUGAGAGCAUCUACGGAUGCAGAGGCGGCAGCCUUCGGUGGCGCGAUAGCGCCAACGUUCUCAACUAUGACACGCAAAACGCGUGCUCCGUUCAAUGGAGUUUAUCAUG, the “polymerase ribozyme fitness (log ratio)” value was at most -4.2. With GGAUCUUCUCGAUCUAACAAAAAAGACGAAUCUGCCACAAAGCUUGAGAGCAUCUUCGGAGGCAGAGGCGGCAGCCUUCGGUGGCGCGAUAGCGACUACGUUCUCAUCUAUGACACGCAAAACGCGUGCUCCGUUGAAUGGAGUUUAUCAUG the “polymerase ribozyme fitness (log ratio)” value was at most -4.2. In the case of GGAUCUUCUCGAUCUAACAAAAAAGACUCAUCUGCCACAAAGCUUGAGAGCAUCUUCGGAUGCAGAGGCGGCAGCCGUCGGUGGCGCAAUAGCGCCAACGUUCUCAACUAUGACACGCAAAACGCGUGCUCCGUUGAAUGGAGUUUAUAAUG, the “polymerase ribozyme fitness (log ratio)” value is reported as at most -4.2. In the case of GGAUCUUCUCGAUCUAACAAAAAAGACUUAUCUGCCGCAAAGCUUGAGAGCAUCUUCGGAUGCAGUGGCGGCUGCCUGCGGUGACGCGAUAGCGCCAACGUUCUCAACUAUGACACGCAAAACGCGUGCUCCGUUGAAUGGAGUUUAUCAUG, the “polymerase ribozyme fitness (log ratio)” value is reported as at most -4.2. For GGAUCUUCUCGAUCUAACAAAAAAGACUUAUCUGCCACAACGCUUGAGAGCAUCUUCGGAUGCAGAGGCGGCAGCCUUCGGUGGCACGAUAGCGCCAACGUUCUCAACUAUGACUCGCAAAACGCGUGCUCCGUUGAAUGGAGUUUAUCAUG, the “polymerase ribozyme fitness (log ratio)” value was at most -4.2. For GGAUCUUCUCGAUCUAACAAAAAAGACUACUAUGCCACAAAGCUUGCGAGCAUCUUCCGAUGCAGAGGCGGCAGCCUUCGGUGGUGCGAUAGCGCCAACGUUCUCAUCUAUGACACGCAAAACGCGUGCUCCGUUGAAUGGAGUUUAUCAUG, the “polymerase ribozyme fitness (log ratio)” value was at most -4.2. With GGAUCUUCUCGAUCUAACAAAAAAGACUAUUCUGCCACUAAGCUUGAGACCAUCUUGGGAUGCAGAGGCGGCAGGCUUCGGACGCGCGAUAGCGCCAACGUUCUCAACUAUGACACGCAAAACUCGUGCUCCGUUGAAUGGAGUUUAUCAUG the “polymerase ribozyme fitness (log ratio)” value was at most -4.2. For GGAUCUUCUCGAUCUAACAAAAAAGACUAAUCUGCCCCAAAGCUUGAGAGCAUCUUCGGAUGCAGAGGCGGCAGCCUUUGGUGGCGUGAUAGCGCCAACGUUCUCAACUAUGACACGCAAAACGCGUGCUCCGUUGAAUGGAGUUUAUCAUG, the “polymerase ribozyme fitness (log ratio)” value was -3.89. With GGAUCUUCUCGAUCUAACAAAAAAGACUAAUCUGCCCCAAAGCUUGAGAGCAUCUUCGUAAGCAGAGGCGGCAGCCGGCGGUGGCGCGAUAGCGUCAACGUUUUCAACUAUGACACGCAAAACGCGUGCUCCGUUGAAUGGAGUUUAUUGUG the “polymerase ribozyme fitness (log ratio)” value was at most -4.2. In the case of GGAUCUUCUCGAUCUAACAAAAAAGACUAAUCUGCCUCAAAGCUUGAGAGCAUCAUCGGAUGCAGAGACGGAAGCCUUCGGUGGUGCGAUAGCGUCAACGUUCUCAACUAUGACACGCAAAACGCGUGCUCCGUUGAAUGGAGUUUAUCAUG, the “polymerase ribozyme fitness (log ratio)” value is reported as at most -4.2.
